# Assay results from the supplement of paper PMC7580552.
# Where a name gives a salt, the structure may show the parent alone. Some of the results follow. Most values come without repeats; read them as rough.
# Tested on: Escherichia coli W3110
# Assay: planktonic growth (OD600) relative to untreated control; higher = more growth
# Details: 10 µM; 20-24 h; 30 °C; TB
# 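Note: stationary (unshaken) cultures in 96-well plates, started at OD600 0.05 from mid-exponential cells, with compounds supplied from DMSO stocks.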
row,SMILES,planktonic growth [%]
1,CN1C(=O)CC(c2ccccc2)C1=O (centres undefined) [Phensuximide],94
2,CN(C)CCN(Cc1ccccc1)c1ccccn1 [Tripelennamine hydrochloride],111
3,CC1CNc2c(cccc2S(=O)(=O)N[C@@H](CCCNC(=N)N)C(=O)N2CC[C@@H](C)C[C@@H]2C(=O)O)C1 (some centres undefined) [Argatroban],91
4,Clc1ccc(CSC(Cn2ccnc2)c2ccc(Cl)cc2Cl)cc1 (centres undefined) [Sulconazole nitrate],105
5,N=C(N)NC(=O)Cc1c(Cl)cccc1Cl [Guanfacine hydrochloride],95
6,COc1ccc2[nH]c([S+]([O-])Cc3ncc(C)c(OC)c3C)nc2n1 (centres undefined) [Tenatoprazole],98
7,CN(C)CCOC(c1ccccc1)c1ccccc1 [Diphenhydramine hydrochloride],92
8,NC(Cc1cc(I)c(Oc2cc(I)c(O)c(I)c2)c(I)c1)C(=O)O (centres undefined) [Thyroxine (L)],107
9,CN(C)CC/C=C1/c2ccccc2Sc2ccc(Cl)cc21 [Chlorprothixene hydrochloride],96
10,CC(=O)[C@H]1CC[C@H]2[C@@H]3CCC4=CC(=O)CC[C@]4(C)[C@H]3CC[C@]12C [Progesterone],96
11,CCCN(CCC)S(=O)(=O)c1ccc(C(=O)O)cc1 [Probenecid],91
12,C[C@]12CC[C@@H]3c4ccc(O)cc4CC[C@H]3[C@@H]1CC[C@@H]2O [Estradiol-17 beta],105
13,CCC1(c2ccccc2)NC(=O)N(C)C1=O (centres undefined) [Mephenytoin],95
14,CCc1c(C)[nH]c2c1C(=O)C(CN1CCOCC1)CC2 (centres undefined) [Molindone hydrochloride],94
15,Cc1ncc(CO)c(CO)c1O [Pyridoxine hydrochloride],98
16,CC1(C)[C@H](C(=O)O)N2C(=O)C[C@H]2S1(=O)=O [Sulbactam],110
17,N=C(N)NS(=O)(=O)c1ccc(N)cc1 [Sulfaguanidine],105
18,CC(=O)Oc1ccccc1C(=O)O [Acetylsalicylic acid],104
19,NC(=O)c1cc[n+](CC2=C(C(=O)[O-])N3C(=O)[C@@H](NC(=O)[C@@H](c4ccccc4)S(=O)(=O)O)[C@H]3SC2)cc1 [Cefsulodin sodium salt],93
20,CC1=C(/C=C/C(C)=C/C=C/C(C)=C/C(=O)O)C(C)(C)CCC1 [Retinoic acid],90
21,Clc1ccc(Cn2c(CN3CCCC3)nc3ccccc32)cc1 [Clemizole hydrochloride],95
22,COc1cc2nc(N(C)CCCNC(=O)C3CCCO3)nc(N)c2cc1OC (centres undefined) [Alfuzosin hydrochloride],102
23,CC(=O)O[C@]1(C(C)=O)CC[C@H]2[C@@H]3C=C(Cl)C4=CC(=O)[C@@H]5C[C@@H]5[C@]4(C)[C@H]3CC[C@@]21C [Cyproterone acetate],95
24,Clc1ccc(CO/N=C(\Cn2ccnc2)c2ccc(Cl)cc2Cl)c(Cl)c1 [Oxiconazole Nitrate],104
25,C#C[C@]1(OC(C)=O)CC[C@H]2[C@@H]3CCC4=CC(=NO)CC[C@@H]4[C@H]3CC[C@@]21CC (mixture of isomers) [Norgestimate],99

row,SMILES,planktonic growth [%]
1,O=C(O)COCCN1CCN(C(c2ccccc2)c2ccc(Cl)cc2)CC1 (centres undefined) [Cetirizine dihydrochloride],93
2,N[C@@H]1CONC1=O [D-cycloserine],101
3,CN(C)/N=N/c1[nH]cnc1C(N)=O [Dacarbazine],89
4,CC[N+](C)(C)Cc1ccccc1Br [Bretylium tosylate],97
5,C[N+](C)(C)CCCCCC[N+](C)(C)C [Hexamethonium dibromide dihydrate],99
6,CN1C(C)(C)CCCC1(C)C [Pempidine],112
7,Cc1onc(-c2c(Cl)cccc2Cl)c1C(=O)N[C@@H]1C(=O)N2[C@@H]1SC(C)(C)[C@@H]2C(=O)O [Dicloxacillin sodium salt hydrate],82
8,CCOC(=O)[C@H](CCc1ccccc1)N[C@@H](C)C(=O)N1Cc2ccccc2C[C@H]1C(=O)O [Quinapril hydrochloride],108
9,CC(CCc1ccccc1)NCC(O)c1ccc(O)c(C(N)=O)c1 (centres undefined) [Labetalol hydrochloride],92
10,O=C(O)c1cccnc1Nc1cccc(C(F)(F)F)c1 [Niflumic acid],77
11,Cc1oncc1C(=O)Nc1ccc(C(F)(F)F)cc1 [Leflunomide],95
12,COc1ccc(C(Cl)=C(c2ccc(OC)cc2)c2ccc(OC)cc2)cc1 [Chlorotrianisene],102
13,COC(=O)Nc1nc2cc(C(=O)c3ccccc3)ccc2[nH]1 [Mebendazole],89
14,CC(C)c1ccc2oc3nc(N)c(C(=O)O)cc3c(=O)c2c1 [Amlexanox],111
15,CC1(C)S[C@@H]2[C@H](NC(=O)[C@H](NC(=O)N3CCNC3=O)c3ccccc3)C(=O)N2[C@H]1C(=O)O [Azlocillin sodium salt],48
16,NCCNCCNCCNCCN [Tetraethylenepentamine pentahydrochloride],80
17,Cc1cc2c(cc1S(N)(=O)=O)S(=O)(=O)CCC2 [Meticrane],91
18,COC(c1ccccc1)(c1ccccc1)[C@H](Oc1nc(C)cc(C)n1)C(=O)O [Ambrisentan],102
19,Cc1c(C)c2c(c(C)c1O)CCC(C)(COc1ccc(CC3SC(=O)NC3=O)cc1)O2 (centres undefined) [Troglitazone],96
20,CC(C(=O)O)c1ccc2c(c1)Cc1cccnc1O2 (centres undefined) [Pranoprofen],121
21,CSc1ccc2c(c1)C(N1CCN(C)CC1)Cc1ccccc1S2 (centres undefined) [Methiothepin maleate],99
22,Cc1cc(C(C)(C)C)c(O)c(C)c1CC1=NCCN1 [Oxymetazoline hydrochloride],91
23,CN(C)CCCN1c2ccccc2Sc2ccccc21 [Promazine hydrochloride],98
24,NS(=O)(=O)c1cc(C(=O)O)cc(N2CCCC2)c1Oc1ccccc1 [Piretanide],105
25,CC(C)(C(=O)O)c1ccc(C(O)CCCN2CCC(C(O)(c3ccccc3)c3ccccc3)CC2)cc1 (centres undefined) [Fexofenadine hydrochloride],100

row,SMILES,planktonic growth [%]
1,COc1ccc([C@@H]2CC(=O)c3c(O)cc(O[C@@H]4O[C@H](CO[C@@H]5O[C@@H](C)[C@H](O)[C@@H](O)[C@H]5O)[C@@H](O)[C@H](O)[C@H]4O)cc3O2)cc1O [Hesperidin],103
2,C[N+]1(CCCCC[N+]2(C)CCCC2)CCCC1 [Pentolinium bitartrate],92
3,COc1ccc(CCN(C)CCCC(C#N)(c2ccc(OC)c(OC)c2)C(C)C)cc1OC (centres undefined) [Verapamil hydrochloride],91
4,Cc1onc(-c2ccccc2)c1-c1ccc(S(N)(=O)=O)cc1 [Valdecoxib],94
5,CCCc1cc(=O)[nH]c(=S)[nH]1 [Propylthiouracil],88
6,C[C@]12CCC(=O)C=C1CC[C@@H]1[C@@H]2[C@@H](O)C[C@@]2(C)[C@H]1CC[C@]2(O)C(=O)CO [Hydrocortisone base],108
7,CCCCCCC[N+](CC)(CC)CCCCc1ccc(Cl)cc1 [Clofilium tosylate],104
8,CNCCCC1c2ccccc2C=Cc2ccccc21 [Protriptyline hydrochloride],102
9,Oc1ncnc2[nH]ncc12 [Allopurinol],92
10,COc1cccc2c1C(=O)c1c(O)c3c(c(O)c1C2=O)C[C@@](O)(C(=O)CO)C[C@@H]3O[C@H]1C[C@H](N)[C@H](O)[C@H](C)O1 [Doxorubicin hydrochloride],99
11,CCC(=O)O[C@@H](O[P@](=O)(CCCCc1ccccc1)CC(=O)N1C[C@H](C2CCCCC2)C[C@H]1C(=O)O)C(C)C [Fosinopril],97
12,CC1(C)S[C@@H]2[C@H](NC(=O)[C@H](N)c3ccc(O)cc3)C(=O)N2[C@H]1C(=O)O [Amoxicillin],74
13,OCCOCCN1CCN(C2=Nc3ccccc3Sc3ccccc32)CC1 [Quetiapine hemifumarate],82
14,Nc1nc(Cl)nc2c1ncn2[C@H]1C[C@H](O)[C@@H](CO)O1 [Cladribine],104
15,CN[C@@H]1[C@H](O[C@H]2[C@H](O[C@H]3[C@H](O)[C@@H](O)[C@H](N=C(N)N)[C@@H](O)[C@@H]3N=C(N)N)O[C@@H](C)[C@]2(O)C=O)O[C@@H](CO)[C@H](O)[C@H]1O [Streptomycin sulfate],44
16,Fc1ccc(C(c2ccc(F)cc2)N2CCN(C/C=C/c3ccccc3)CC2)cc1 [Flunarizine dihydrochloride],106
17,N=C(N)c1ccc(OCCCCCOc2ccc(C(=N)N)cc2)cc1 [Pentamidine isethionate],100
18,Cn1c(NCCN(CCO)CCCc2ccc([N+](=O)[O-])cc2)cc(=O)n(C)c1=O [Nifekalant],92
19,CCCCC(=O)O[C@H]1CC[C@H]2[C@@H]3CCc4cc(O)ccc4[C@H]3CC[C@]12C [Estradiol Valerate],103
20,CC(C(=O)O)c1cccc(C(=O)c2ccccc2)c1 (centres undefined) [Ketoprofen],96
21,CCCC1O[C@@H]2C[C@H]3[C@@H]4CCC5=CC(=O)C=C[C@]5(C)[C@H]4[C@@H](O)C[C@]3(C)[C@]2(C(=O)CO)O1 (some centres undefined) [Budesonide],92
22,COc1ccc(C(=O)CC(=O)c2ccc(C(C)(C)C)cc2)cc1 [Avobenzone],101
23,COc1ncnc(NS(=O)(=O)c2ccc(N)cc2)c1OC [Sulfadoxine],66
24,CC(=O)OCC(=O)[C@@]1(O)[C@H](C)C[C@H]2[C@@H]3CCC4=CC(=O)C=C[C@]4(C)[C@@]3(F)[C@@H](O)C[C@@]21C [Dexamethasone acetate],110
